We go through four molecules from paper PMC12804701.

Sequences of proteins named here, by UniProt entry; tags and fusion partners are left off. A change or cut given only in a name is not applied to a line headed by its entry.
UniProt P10961: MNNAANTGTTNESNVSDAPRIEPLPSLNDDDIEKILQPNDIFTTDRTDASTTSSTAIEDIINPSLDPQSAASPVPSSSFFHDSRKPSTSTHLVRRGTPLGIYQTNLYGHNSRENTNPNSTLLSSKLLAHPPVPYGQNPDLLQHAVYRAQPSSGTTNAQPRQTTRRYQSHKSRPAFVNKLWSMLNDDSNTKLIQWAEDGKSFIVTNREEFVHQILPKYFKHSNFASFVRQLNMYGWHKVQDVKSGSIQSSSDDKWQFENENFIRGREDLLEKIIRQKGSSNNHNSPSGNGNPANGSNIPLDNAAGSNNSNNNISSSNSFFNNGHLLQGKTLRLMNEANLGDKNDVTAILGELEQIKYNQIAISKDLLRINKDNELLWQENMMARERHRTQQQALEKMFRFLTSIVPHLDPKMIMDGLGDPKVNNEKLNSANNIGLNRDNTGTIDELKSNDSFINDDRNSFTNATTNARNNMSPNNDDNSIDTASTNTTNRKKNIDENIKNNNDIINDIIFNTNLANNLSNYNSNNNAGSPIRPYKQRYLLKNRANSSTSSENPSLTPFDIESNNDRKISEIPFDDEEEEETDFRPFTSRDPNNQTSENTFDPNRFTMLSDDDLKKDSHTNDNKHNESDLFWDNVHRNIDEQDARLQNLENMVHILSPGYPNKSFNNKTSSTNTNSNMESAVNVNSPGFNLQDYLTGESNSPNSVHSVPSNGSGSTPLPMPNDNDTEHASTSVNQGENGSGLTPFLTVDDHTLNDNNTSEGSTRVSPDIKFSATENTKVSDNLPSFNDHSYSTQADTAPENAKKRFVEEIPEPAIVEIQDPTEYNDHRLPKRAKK
UniProt P10591: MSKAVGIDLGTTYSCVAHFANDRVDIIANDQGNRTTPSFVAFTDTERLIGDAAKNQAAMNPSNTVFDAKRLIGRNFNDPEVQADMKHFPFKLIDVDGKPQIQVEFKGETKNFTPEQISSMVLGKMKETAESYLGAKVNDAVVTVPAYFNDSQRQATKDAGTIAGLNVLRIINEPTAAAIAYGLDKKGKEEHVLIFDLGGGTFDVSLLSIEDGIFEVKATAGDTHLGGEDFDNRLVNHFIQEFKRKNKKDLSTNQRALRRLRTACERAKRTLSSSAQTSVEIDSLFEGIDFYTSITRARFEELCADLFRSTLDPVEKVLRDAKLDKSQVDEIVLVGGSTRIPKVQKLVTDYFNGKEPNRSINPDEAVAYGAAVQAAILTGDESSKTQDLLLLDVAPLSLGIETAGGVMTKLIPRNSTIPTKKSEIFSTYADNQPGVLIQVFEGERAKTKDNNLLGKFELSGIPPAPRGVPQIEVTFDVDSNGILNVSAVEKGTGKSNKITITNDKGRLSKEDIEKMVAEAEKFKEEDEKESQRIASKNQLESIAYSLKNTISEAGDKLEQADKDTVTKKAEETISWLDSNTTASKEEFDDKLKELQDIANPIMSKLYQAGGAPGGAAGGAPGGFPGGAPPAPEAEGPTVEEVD

Test [1] concerns the target GFP-Hsf1 (budding yeast) (UniProt P10961). The experiment in a line: co-IP; GFP-Hsf1 purified with GFP-Trap / anti-GFP magnetic beads from lysates of FLAG-WT or T492A yeast (SSA2-promoter or GPD-promoter strains), untreated or heat-shocked; 50 mM Na-phosphate pH 8.0, 300 mM NaCl, 0.01% Tween-20, 4 °C overnight; blot for FLAG and GFP.
Test [2] shares this target. Description: co-IP; as a2, FLAG-WT cells after heat shock: GFP-Hsf1 purified with GFP-Trap beads, blot for FLAG.
The target of test [3] is FLAG-tagged Ssa1 (wild type) (budding yeast) (UniProt P10591). Description: co-IP; FLAG-Ssa1 against Bck1-HA fragments in WT and T492A yeast, untreated or heat-shocked; which tag was precipitated is not given.
The target in test [4] is FLAG-tagged Ssa1-T492A (budding yeast) (UniProt P10591). The description is as above.

These are yes or no findings as the source states them, for the method shown. In cells and extracts the contact can be indirect. Some entries that bind do so weakly or less than the wild type. For some of these results: Where a sequence is shown, tags or fusion partners need not be part of it.

In the case of “FLAG-tagged Ssa1-T492A (from UniProt P10591 1-642)”, the binding result in test [1] is given as “binds”.

With “FLAG-tagged Ssa1 (wild type) (from UniProt P10591 1-642)”, the binding result in test [2] is reported as “no binding (condition: after heat shock of the cells)”; in test [1], “binds”.

B1: Bck1 (1–738) with an HA tag (domain or fragment, UniProt Q01389 1-738)
chain: MPFLRKIAGTAHTHSRSDSNSSVKFGHQPTSSVASTKSSSKSPRATSRKSIYDDIRSQFPNLTPNSTSSQFYESTPVIEQSFNWTTDDHISAGTLENPTSFTNSSYKNDNGPSSLSDSRKSSGGNSVNSLSFDKLILSWDPTDPDEWTMHRVTSWFKFHDFPESWILFFKKHQLFGHRFIKLLAYDNFAVYEKYLPQTKTASYTRFQQLLKKTMTKNVTNSHIRQKSASKLKSSRSSSESIKSKLKNSKSQEDISNSRSTSESALSPTKSGPSKTDEKNFLHSTSTHQKTKSASSLYRRSFISLRGSSSSNASSAKSPSNIKLSIPARPHSIIESNSTLTKSASPPASPSYPSIFRRHHKSSSSESSLLNSLFGSGIGEEAPTKPNPQGHSLSSENLAKGKSKHYETNVSSPLKQSSLPTSDDKGNLWNKFKRKSQIGVPSPNTVAYVTSQETPSLKSNSSTATLTVQTADVNIPSPSSSPPPIPKTANRSLEVISTEDTPKISSTTASFKETYPDCINPDKTVPVPVNNQKYSVKNFLLDQKFYPLKKTGLNDSENKYILVTKDNVSFVPLNLKSVAKLSSFKESALTKLGINHKNVTFHMTDFDCDIGAAIPDDTLEFLKKSLFLNTSGKIYIKDQMKLQQKPKPAPLTSENNVPLKSVKSKSSMRSGTSSLIASTDDVSIVTSSSDITSFDEHASGSGRRYPQTPSYYYDRVSNTNPTEELNYWNIKEVLSHEEN
On to B1, for which the binding result in test [3] and in test [4] was “binds” in each case.

B2: Bck1 (739–1478) with an HA tag (domain or fragment, UniProt Q01389 739-1478)
chain: APKMVFKTSPKLELNLPDKGSKLNIPTPITENESKSSFQVLRKDEGTEIDFNHRRESPYTKPELAPKREAPKPPANTSPQRTLSTSKQNKPIRLVRASTKISRSKRSKPLPPQLLSSPIEASSSSPDSLTSSYTPASTHVLIPQPYKGANDVMRRLKTDQDSTSTSPSLKMKQKVNRSNSTVSTSNSIFYSPSPLLKRGNSKRVVSSTSAADIFEENDITFADAPPMFDSDDSDDDSSSSDDIIWSKKKTAPETNNENKKDEKSDNSSTHSDEIFYDSQTQDKMERKMTFRPSPEVVYQNLEKFFPRANLDKPITEGIASPTSPKSLDSLLSPKNVASSRTEPSTPSRPVPPDSSYEFIQDGLNGKNKPLNQAKTPKRTKTIRTIAHEASLARKNSVKLKRQNTKMWGTRMVEVTENHMVSINKAKNSKGEYKEFAWMKGEMIGKGSFGAVYLCLNVTTGEMMAVKQVEVPKYSSQNEAILSTVEALRSEVSTLKDLDHLNIVQYLGFENKNNIYSLFLEYVAGGSVGSLIRMYGRFDEPLIKHLTTQVLKGLAYLHSKGILHRDMKADNLLLDQDGICKISDFGISRKSKDIYSNSDMTMRGTVFWMAPEMVDTKQGYSAKVDIWSLGCIVLEMFAGKRPWSNLEVVAAMFKIGKSKSAPPIPEDTLPLISQIGRNFLDACFEINPEKRPTANELLSHPFSEVNETFNFKSTRLAKFIKSNDKLNSSKLRITSQENKTE
In the case of B2, the binding result in test [3] and in test [4] was “binds” each time.
